Measured values from the supplement of paper PMC4604168 (melanoma cell lines).
This is one part of the list. Most values come without repeats; read them as rough.

Experiments:
Experiment in all cases: cell count relative to DMSO control; melanoma cells; higher = more viable cells
Conditions in all cases: library dose: standard library concentration; 72 h
G361 = tested on: G361
IPC-298 = tested on: IPC-298
IST-MEL1 = tested on: IST-MEL1
LB2518-MEL = tested on: LB2518-MEL
LOXIMVI = tested on: LOXIMVI
MEL-HO = tested on: MEL-HO
MZ2-MEL = tested on: MZ2-MEL
MeWo = tested on: MeWo
RPMI7951 = tested on: RPMI7951
RVH-421 = tested on: RVH-421
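Also: cells treated in 1,536-well plates, then fixed and DAPI-stained, with nuclei counted from automated high-throughput microscope images.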

| SMILES | cell count (G361) [%] | cell count (IPC-298) [%] | cell count (IST-MEL1) [%] | cell count (LB2518-MEL) [%] | cell count (LOXIMVI) [%] | cell count (MEL-HO) [%] | cell count (MZ2-MEL) [%] | cell count (MeWo) [%] | cell count (RPMI7951) [%] | cell count (RVH-421) [%] |
| --- | --- | --- | --- | --- | --- | --- | --- | --- | --- | --- |
| C[C@]1(c2nc3c(C(N)=O)cccc3[nH]2)CCCN1 [Veliparib] + O=C1NC(=O)/C(=C/c2ccc(-c3ccc(F)cc3O)o2)S1 [AS252424] (first compound 7 µM, partner dose 5 µM) | 89.7 | 85.4 | 97.2 | 80 | 73.7 | 81.5 | 88.3 | 81.1 | 105 | 94 |
| NCC(=O)Nc1ccc(-n2nc(C(F)(F)F)cc2-c2ccc3c(ccc4ccccc43)c2)cc1 + Oc1cc(-c2nc(-c3ccccc3)[nH]c2-c2ccncc2)ccc1Cl [L779450] (first compound 5 µM, partner dose 1 µM) | 71 | 54.9 | 83.1 | 73.7 | 94.4 | 76 | 64 | 77.5 | 76.1 | 71.7 |
| OCCn1cc(-c2cnc3nnn(Cc4ccc5ncccc5c4)c3n2)cn1 + Cn1cncc1[C@@](N)(c1ccc(Cl)cc1)c1ccc2c(c1)c(-c1cccc(Cl)c1)cc(=O)n2C [tipifarnib] (first compound 5 µM, partner dose 0.05 µM) | 81.2 | 87.9 | 84.4 | 70.6 | 81.7 | 88.6 | 112 | 71 | 64.6 | 82.9 |
| NC(=O)Nc1cc(-c2cccc(F)c2)sc1C(=O)N[C@H]1CCCNC1 + O=S(=O)(c1ccccc1)N(CC(F)(F)F)c1ccc(C(O)(C(F)(F)F)C(F)(F)F)cc1 [T0901317] (first compound 0.1 µM, partner dose 7 µM) | 92.6 | 82 | 94.2 | 49.1 | 105 | 80.2 | 88.9 | 67.3 | 48.7 | 99.1 |
| C=CCn1c(=O)c2cnc(Nc3ccc(N4CCN(C)CC4)cc3)nc2n1-c1cccc(C(C)(C)O)n1 + Oc1cc(-c2nc(-c3ccccc3)[nH]c2-c2ccncc2)ccc1Cl [L779450] (first compound 0.1 µM, partner dose 1 µM) | 62.9 | 63.3 | 83.1 | 62.4 | 94.1 | 80.4 | 93 | 58.7 | 54.3 | 65.5 |
| OCCn1cc(-c2cnc3nnn(Cc4ccc5ncccc5c4)c3n2)cn1 + CC(C)CCN1c2nc(Nc3cc(F)c(O)c(F)c3)ncc2N(C)C(=O)C1C [BID1870] (first compound 5 µM, partner dose 1 µM) | 63.3 | 80.8 | 88.6 | 98 | 96.8 | 88.5 | 89 | 77.5 | 88.4 | 79.4 |
| NCC(=O)Nc1ccc(-n2nc(C(F)(F)F)cc2-c2ccc3c(ccc4ccccc43)c2)cc1 + COc1ccc(COc2ccc(Cc3cnc(N)nc3N)cc2OC)cc1 [GW2580] (first compound 5 µM, partner dose 5 µM) | 54.9 | 60.6 | 76 | 87.9 | 69.5 | 73.4 | 69.9 | 87.2 | 91.7 | 80.8 |
| OCCn1cc(-c2cnc3nnn(Cc4ccc5ncccc5c4)c3n2)cn1 + N#Cc1c(O)c2c(-c3ccc(-c4ccccc4O)cc3)csc2[nH]c1=O [A769662] (first compound 5 µM, partner dose 10 µM) | 91.7 | 88.3 | 86.6 | 106 | 95.2 | 95.1 | 103 | 83.9 | 74.9 | 73.7 |
| OCCn1cc(-c2cnc3nnn(Cc4ccc5ncccc5c4)c3n2)cn1 + CCc1ccc(CCOc2ccc(CC3SC(=O)NC3=O)cc2)nc1 [pioglitazone] (first compound 5 µM, partner dose 10 µM) | 98.8 | 103 | 104 | 106 | 107 | 86.1 | 95.6 | 95 | 77.4 | 93.3 |
| C[C@]1(c2nc3c(C(N)=O)cccc3[nH]2)CCCN1 [Veliparib] + CO[C@@H]1[C@H](N(C)C(=O)c2ccccc2)C[C@H]2O[C@]1(C)n1c3ccccc3c3c4c(c5c6ccccc6n2c5c31)C(=O)NC4 [Midostaurin] (first compound 7 µM, partner dose 0.4 µM) | 68.3 | 66.7 | 68.4 | 49.4 | 55.5 | 77.9 | 65.7 | 77.9 | 41.2 | 58.7 |
| CN(C)S(=O)(=O)c1ccc2c(c1)/C(=C/c1cc3c([nH]1)CCCC3)C(=O)N2 + COc1ccc(COc2ccc(Cc3cnc(N)nc3N)cc2OC)cc1 [GW2580] (first compound 2 µM, partner dose 5 µM) | 62.8 | 65.4 | 84.1 | 73.9 | 130 | 88.7 | 81.7 | 83 | 50.2 | 84.7 |
| NC(=O)Nc1cc(-c2cccc(F)c2)sc1C(=O)N[C@H]1CCCNC1 + CCCCCCCCCCCC1=C(O)C(=O)C=C(O)C1=O [Embelin] (first compound 0.1 µM, partner dose 6 µM) | 67.5 | 63.6 | 62.3 | 50 | 79 | 47.5 | 89.6 | 76.9 | 28.3 | 52.6 |
| Cc1nc(Nc2ncc(C(=O)Nc3c(C)cccc3Cl)s2)cc(N2CCN(CCO)CC2)n1 [dasatanib] + COc1ccc(COc2ccc(Cc3cnc(N)nc3N)cc2OC)cc1 [GW2580] (first compound 0.02 µM, partner dose 5 µM) | 73.5 | 86.5 | 71 | 116 | 37.3 | 82.6 | 65.4 | 74 | 41.4 | 75.2 |
| C=CCn1c(=O)c2cnc(Nc3ccc(N4CCN(C)CC4)cc3)nc2n1-c1cccc(C(C)(C)O)n1 + O=C1NC(=O)/C(=C/c2ccc(-c3ccc(F)cc3O)o2)S1 [AS252424] (first compound 0.1 µM, partner dose 5 µM) | 82.6 | 105 | 111 | 24.1 | 90.4 | 91.9 | 97.3 | 89.2 | 92.4 | 83 |
| CO[C@@H]1[C@H](N(C)C(=O)c2ccccc2)C[C@H]2O[C@]1(C)n1c3ccccc3c3c4c(c5c6ccccc6n2c5c31)C(=O)NC4 [Midostaurin] + CC(C)(C)c1cnc(CSc2cnc(NC(=O)C3CCNCC3)s2)o1 [SNS-032] (first compound 0.4 µM, partner dose 0.05 µM) | 32.6 | 60 | 73.3 | 63.8 | 47.1 | 66.3 | 64.2 | 68.5 | 14.8 | 76.5 |
| C=CCn1c(=O)c2cnc(Nc3ccc(N4CCN(C)CC4)cc3)nc2n1-c1cccc(C(C)(C)O)n1 + Cc1cc(N2CCOCC2)cc2[nH]c(-c3c(NC[C@@H](O)c4cccc(Cl)c4)cc[nH]c3=O)nc12 [BMS536924] (first compound 0.1 µM, partner dose 1 µM) | 64.4 | 86.5 | 88.1 | 58.6 | 82.1 | 78.2 | 90.7 | 43.1 | 49 | 90.2 |
| CN(C)S(=O)(=O)c1ccc2c(c1)/C(=C/c1cc3c([nH]1)CCCC3)C(=O)N2 + CCc1ccc(CCOc2ccc(CC3SC(=O)NC3=O)cc2)nc1 [pioglitazone] (first compound 2 µM, partner dose 10 µM) | 69.2 | 87.6 | 89.2 | 85.8 | 123 | 93.8 | 101 | 116 | 102 | 74.6 |
| CO[C@@H]1[C@H](N(C)C(=O)c2ccccc2)C[C@H]2O[C@]1(C)n1c3ccccc3c3c4c(c5c6ccccc6n2c5c31)C(=O)NC4 [Midostaurin] + O=c1cc(-c2cccc3c2Sc2ccccc2S3)oc(N2CCOCC2)c1 [KU55933] (first compound 0.4 µM, partner dose 5 µM) | 34 | 50.9 | 63.7 | 46.8 | 70.1 | 71.2 | 36.2 | 58.2 | 28.8 | 72.2 |
| C[C@]1(c2nc3c(C(N)=O)cccc3[nH]2)CCCN1 [Veliparib] + CCc1ccc(CCOc2ccc(CC3SC(=O)NC3=O)cc2)nc1 [pioglitazone] (first compound 7 µM, partner dose 10 µM) | 88.6 | 96.5 | 91.3 | 75.7 | 81 | 101 | 87 | 102 | 98 | 83.5 |
| OCCn1cc(-c2cnc3nnn(Cc4ccc5ncccc5c4)c3n2)cn1 + O=c1cc(-c2cccc3c2Sc2ccccc2S3)oc(N2CCOCC2)c1 [KU55933] (first compound 5 µM, partner dose 5 µM) | 80.1 | 88.8 | 88.1 | 107 | 99.9 | 82.9 | 81.1 | 86.7 | 52.4 | 112 |
| C[C@]1(c2nc3c(C(N)=O)cccc3[nH]2)CCCN1 [Veliparib] + COc1cc(N2CCC(N3CCN(C)CC3)CC2)ccc1Nc1ncc(Cl)c(Nc2ccccc2S(=O)(=O)C(C)C)n1 [NVP-TAE684] (first compound 7 µM, partner dose 0.4 µM) | 95 | 96.9 | 95.7 | 63.5 | 95 | 93.1 | 84 | 77.3 | 77.9 | 81.2 |
| C[C@]1(c2nc3c(C(N)=O)cccc3[nH]2)CCCN1 [Veliparib] + O=C(O)C(=O)Nc1sc2c(c1C(=O)O)CCNC2 [TCS401] (first compound 7 µM, partner dose 8.33333 µM) | 89.3 | 106 | 108 | 85.6 | 86.9 | 101 | 107 | 104 | 104 | 80.2 |
| Cc1nc(Nc2ncc(C(=O)Nc3c(C)cccc3Cl)s2)cc(N2CCN(CCO)CC2)n1 [dasatanib] + N#Cc1c(O)c2c(-c3ccc(-c4ccccc4O)cc3)csc2[nH]c1=O [A769662] (first compound 0.02 µM, partner dose 10 µM) | 81.1 | 94.3 | 64.2 | 86.9 | 23.1 | 78.6 | 52.7 | 91.9 | 36.7 | 89.7 |
